Data: PubChem BioAssay AID463173 (ICCB-Longwood Screening Facility, Harvard Medical School, 2010)
Among all 52,000 compounds or so, about 4,300 (8.3%) were called active. Rule as the data show it: active = survival mostly below about 52% (no sharp cut-off); inactive = mostly above about 56%. The list shows a part of the results.

Each molecule was assayed on DeltatarO mutant (assay: growth inhibition of S. aureus wild type versus tarO mutant, primary screen, teichoic acid synthesis inhibitors, RN4220, OD600 (AID 463173)). Conditions: OD600, 18 h, hits give low values, screened at 18.75 µg/mL (by protocol).
For `COc1ccc(/C=C2\CCOC2=O)cc1`, the survival was inactive: 88%.
`CCCCC(=O)Nc1ccc2nc(SCC(=O)N3CCCC3)sc2c1` was tested, and the survival was inactive: 88%.
With `COc1ccccc1-c1cc(C(=O)N2CCCCC2C)no1` (stereo not given) the survival was active: 11%.
With `COc1ccc(CNC(=O)c2nn(-c3ccccc3C)nc2CO)cc1` the survival was inactive: 91%.
With `CCOc1ccc(S(=O)(=O)N(CC(=O)NCCSc2ccccc2)c2ccccc2)cc1` the survival was inactive: 95%.
With `O=C(Cn1c2ncccc2c(=O)n1-c1ccccc1)Nc1ccc(F)c(F)c1` the survival was inactive: 107%.
`O=C(NCc1ccc(Cl)cc1)C1CCCN(c2nc3ccccc3n3cccc23)C1` (stereo not given) was tested, and the survival was inactive: 82%.
In the case of `Cc1cc(C)nc(N2CCCC(C)C2)n1` (stereo not given), the survival is reported as inactive: 87%.
With `Cc1cc(N2CCCCC2)nc2ccc(NC(=O)/C=C/c3ccccc3Cl)cc12` the survival was active: 44%.
In the case of `Cc1ccccc1Cn1c(=O)n(CCc2ccccc2)c(=O)c2ccccc21`, the survival is reported as inactive: 64%.
With `CCn1cc(C(=O)OCC(=O)Nc2ccc(F)cc2F)c(=O)c2ccc(C)nc21` the survival was inactive: 164%.
With `Cc1cccc(-c2nc(Cn3c(=O)cc(-c4ccccc4)c4c(C)nn(C)c43)c(C)o2)c1` the survival was active: -5%.
For `COC(=O)c1ccc(Cn2c(=O)cc(C(F)(F)F)c3c(C)nn(C)c32)cc1`, the survival was inactive: 95%.
With `COC(F)(C(=O)NC12CC3CC(CC(C3)C1)C2)C(F)(F)F` (stereo not given) the survival was inactive: 108%.
For `COc1ccc(OC)c(NC(=O)CSc2nc3ccccc3nc2N2CCCCC2)c1`, the survival was active: 5%.
In the case of `CCCC(=O)OCc1cnc(C)c2oc(=O)c(C(=O)Nc3ccccc3)cc12`, the survival is reported as inactive: 88%.
For `COc1ccc(NC(=O)C2CCC(CNS(=O)(=O)c3ccc(Br)s3)CC2)cc1OC` (stereo not given), the survival was inactive: 75%.
With `COc1ccc(NC(=O)COc2ccc(S(=O)(=O)NC3CCCCC3)cc2)cc1OC` the survival was inactive: 69%.
With `CC(NC(=O)CCNS(=O)(=O)c1cccc2nsnc12)c1ccccc1` (stereo not given) the survival was inactive: 51%.
In the case of `COc1ccc(Br)cc1C1Sc2ccccc2NC2=C1C(=O)c1ccccc12` (stereo not given), the survival is reported as active: 31%.
`O=C(Nc1cccc(Cl)c1)c1cnc[nH]1` was tested, and the survival was inactive: 104%.
For `Cc1ccc2c(=O)cc(CSCC(=O)Nc3nnc(C)s3)[nH]c2c1`, the survival was inactive: 107%.
In the case of `O=C(COc1ccccc1)Nc1nnc(S(=O)(=O)N2CCCC2)s1`, the survival is reported as active: 39%.
`CCOc1ccc(-n2c(=O)c3c4c(sc3n(CC(=O)Nc3cccc(C(F)(F)F)c3)c2=O)CCCCC4)cc1` was tested, and the survival was inactive: 77%.
`COc1ccccc1NC(=O)C(Cc1ccccc1)NS(=O)(=O)c1ccc2c(c1)c(=O)n(C)c(=O)n2C` (stereo not given) was tested, and the survival was inactive: 112%.
In the case of `O=C(Nc1ccc2oc(-c3ccc4ccccc4c3)nc2c1)c1ccccc1F`, the survival is reported as inactive: 64%.
With `O=C(OCC1CCCO1)c1ccc2c(c1)N(Cc1ccccc1Cl)C(=O)c1ccccc1S2(=O)=O` (stereo not given) the survival was inactive: 113%.
`CCCCOc1cccc(NC(=O)CSc2nnc(C)s2)c1` was tested, and the survival was inactive: 50%.
For `Cc1cc(Nc2cccc(C(F)(F)F)c2)nc2ccc(NC(=O)c3ccc(=O)[nH]c3)cc12`, the survival was active: 37%.
For `O=C(NCc1ccc(F)cc1)c1c(O)nc2ccccn2c1=O`, the survival was active: 44%.
With `COc1ccc(NC(=O)c2ccc(C3SCC(=O)N3Cc3ccco3)cc2)cc1` (stereo not given) the survival was inactive: 78%.
For `CN(Cc1ccccc1)c1ncnc2onc(-c3ccc(F)cc3)c12`, the survival was inactive: 81%.
With `COc1ccc(CNC(=O)C(C)n2ccc3cc(S(=O)(=O)N4CCCC4)ccc32)cc1OC` (stereo not given) the survival was inactive: 85%.
`Cc1cc(C)c(NC(=O)C2CCN(c3nnc(C)c4c(C)n(-c5ccccc5)nc34)CC2)c(C)c1` was tested, and the survival was active: 52%.
For `COc1ccccc1NC(=O)C1=C(C)Nc2nc(SCc3ccccc3C)nn2C1CC(C)C` (stereo not given), the survival was inactive: 92%.
With `COc1ccc(Cn2nnnc2CN(Cc2ccc(C)cc2)Cc2cc3cc4c(cc3[nH]c2=O)OCO4)cc1` the survival was inactive: 90%.
`COc1cc(Cl)c(C)cc1NC(=O)Cn1ncc2c([nH]c3ccccc32)c1=O` was tested, and the survival was inactive: 81%.
With `COc1cccc(C(c2c(O)cc(C)n(Cc3ccco3)c2=O)N2CCN(c3ccccc3)CC2)c1` (stereo not given) the survival was inactive: 68%.
In the case of `O=C(CSc1nccn1Cc1ccc(Cl)cc1)Nc1ccc2c(c1)OCCO2`, the survival is reported as inactive: 94%.
`CCC(=O)N/N=C/c1ccc(-c2ccc(Cl)cc2)o1` was tested, and the survival was inactive: 63%.
With `CCOCCCn1c(SCC(=O)Nc2ccc(C)cc2)nc2ccccc2c1=O` the survival was inactive: 62%.
For `Cc1cc(C)n(C(C)CC(=O)NCc2ccc(N(C)C)cc2)n1` (stereo not given), the survival was inactive: 71%.
`COC(=O)c1cc2sccc2n1Cc1nc(-c2ccc(Cl)cc2)oc1C` was tested, and the survival was inactive: 90%.
With `CCc1ccccc1NC(=O)c1ccc2c(c1)N(Cc1cc(C)ccc1C)C(=O)c1ccccc1S2(=O)=O` the survival was inactive: 84%.
With `N#CC(C#N)=Cc1cn(-c2ccccc2)nc1C12CC3CC(CC(C3)C1)C2` the survival was inactive: 88%.
For `Cc1oc2ncn(C)c(=O)c2c1C(=O)NCCCN1CCCC(C)C1` (stereo not given), the survival was inactive: 80%.
With `O=C(Nc1ccc(Br)cc1F)c1ncoc1-c1ccco1` the survival was inactive: 97%.
With `Cc1cc(C)cc(NS(=O)(=O)c2ccc3c(c2)CCCN3C(=O)C2CCC2)c1` the survival was inactive: 74%.
In the case of `COc1ccc(-n2ncc(C(=O)N3CCc4ccccc4C3)c2C2CCN(C(=O)OC(C)(C)C)CC2)cc1`, the survival is reported as inactive: 88%.
For `CCc1ccc2oc(C(=O)Nc3nonc3CC)c(C)c2c1`, the survival was inactive: 78%.
With `Cc1nc(-c2ccc(C)c(S(=O)(=O)N3CCC(C(=O)NCc4ccc(Cl)cc4)CC3)c2)no1` the survival was inactive: 126%.
`COc1ccc(CCNC(=O)C2CCCN(c3nc4c(C)cc(C)cc4s3)C2)cc1OC` (stereo not given) was tested, and the survival was inactive: 81%.
For `COc1ccc(C2=C(C)C(=O)N(Cc3ccc(C(=O)NCc4ccc(C)cc4)cc3)S2(=O)=O)cc1`, the survival was inactive: 97%.
In the case of `Cc1cccc(CN2CCN(CC(=O)NCc3ccc(Cl)cc3)C2=O)c1`, the survival is reported as inactive: 72%.
In the case of `Cc1ccc(S(=O)(=O)C(CNC(=O)c2ccccc2F)c2cccs2)cc1` (stereo not given), the survival is reported as inactive: 77%.
With `CCOC(=O)c1c(NC(=O)c2cc(C(C)C)on2)sc(C)c1C` the survival was inactive: 49%.
With `COc1ccc(-c2cc(C(F)(F)F)n3nc(C(=O)NCC45CC6CC(CC(C6)C4)C5)cc3n2)cc1` the survival was active: 29%.
`O=C(COc1ccccc1)N(Cc1cccnc1)c1nc2ccc(F)cc2s1` was tested, and the survival was inactive: 83%.
For `CCOc1cc(-c2nc(-c3ccc(Br)cc3)no2)cc(OCC)c1OCC`, the survival was inactive: 118%.
With `COCCCNC(=O)c1ccc2c(=O)n(Cc3ccc(OC)cc3)c(=O)[nH]c2c1` the survival was inactive: 60%.
In the case of `Cc1ccc(-c2ccc(=O)n(CC(=O)Nc3cccc(C#N)c3)n2)cc1`, the survival is reported as inactive: 112%.
`CNC(=O)C1CCC(Cn2c(=O)c3sccc3n(CC(=O)NCc3ccc(F)cc3)c2=O)CC1` (stereo not given) was tested, and the survival was inactive: 73%.
For `O=C(C1CCCN(S(=O)(=O)c2ccc(Br)s2)C1)N1CCN(c2ccccc2)CC1` (stereo not given), the survival was inactive: 85%.
In the case of `CCOc1ccc(-c2nc3c(c(SCC(=O)N4CCCCC4)n2)Cc2ccccc2O3)cc1`, the survival is reported as inactive: 69%.
With `COc1ccc(NC(=O)c2ccc3c(=O)n4nc(Nc5cccc(Cl)c5C)sc4nc3c2)cc1` the survival was inactive: 67%.
For `Cc1c(C(=O)N2CCCCC2)sc(NC(=O)C(C)C)c1C#N`, the survival was inactive: 94%.
For `CC(=O)N1CCCc2cc(S(=O)(=O)N3CCCC(C(=O)Nc4cc(Cl)ccc4C)C3)ccc21` (stereo not given), the survival was inactive: 124%.
In the case of `CCc1nnc(NC(=O)C2CCN(S(=O)(=O)Cc3ccccc3)CC2)s1`, the survival is reported as inactive: 89%.
In the case of `C=Cc1ccc(Cn2c(C(=O)O)c(CNCc3ccccc3)c3ccc(C)cc32)cc1`, the survival is reported as inactive: 120%.
`CC1=C(C(=O)Nc2cccnc2)C(c2ccccc2)n2nc(-c3ccc(O)cc3)nc2N1` (stereo not given) was tested, and the survival was inactive: 79%.
`Cc1ccc(C2CCN(C(=O)c3cnn(-c4ccc(C)cc4)c3C3CCN(C(=O)OC(C)(C)C)CC3)C2)cc1` (stereo not given) was tested, and the survival was inactive: 105%.
For `CC(=O)Nc1ccc(NC(=O)c2oc3ccc4c(c3c2C)C(=O)CC(C)(C)O4)cc1`, the survival was inactive: 75%.
`O=c1c(N2CCc3ccccc3C2)csc2ccccc12` was tested, and the survival was inactive: 78%.
For `O=C(NCCc1ccccc1)c1ccc2c(c1)N(Cc1ccccc1F)C(=O)c1ccccc1S2=O` (stereo not given), the survival was inactive: 74%.
For `Cc1c(Cl)cccc1NC(=O)c1ncn(-c2ccccc2)n1`, the survival was inactive: 90%.
`COc1cccc(NC(=O)CC(C)S(=O)(=O)c2ccc3c(c2)NC(=O)CO3)c1` (stereo not given) was tested, and the survival was inactive: 115%.
For `Cc1ccc2cc(CN(CC3CCCO3)C(=O)C3CCC3)c3nnnn3c2c1` (stereo not given), the survival was inactive: 95%.
With `O=C(N1CCCC1)N1c2ccccc2C=Cc2ccccc21` the survival was inactive: 106%.
For `Cc1ccc(-c2csc(=Nc3ccc(F)cc3)n2Cc2ccc3c(c2)OCO3)cc1C`, the survival was inactive: 80%.
`CCOc1ccccc1NS(=O)(=O)c1ccc(-c2cnc(C3CC3)o2)cc1` was tested, and the survival was inactive: 74%.
In the case of `COc1cc(OC)cc(C(=O)Nc2ccc(S(=O)(=O)Nc3ncccn3)cc2)c1`, the survival is reported as inactive: 82%.
With `Cc1nc2nncn2c(NCc2ccc(F)cc2)c1C` the survival was inactive: 84%.
For `O=C(Nc1nnc(S(=O)(=O)Nc2ccccc2)s1)c1ccccc1Cl`, the survival was inactive: 52%.
In the case of `CCc1noc(-c2ccc(N3CCCCC3C)c([N+](=O)[O-])c2)n1` (stereo not given), the survival is reported as inactive: 114%.
In the case of `O=C(NCc1ccc2c(c1)CCN2C(=O)c1ccc(Cl)cc1)c1cccc(F)c1`, the survival is reported as inactive: 61%.
`Cc1ccc(NC(=O)CCS(=O)(=O)c2cc3c4c(c2)CCN4C(=O)CC3)c(C)c1` was tested, and the survival was inactive: 88%.
`Cc1cccc(C(=O)Nc2nnc(S(=O)(=O)N(C)Cc3ccco3)s2)c1` was tested, and the survival was active: 25%.
For `CC1CCCN(c2ncccc2C(=O)NCC2CCCO2)C1` (stereo not given), the survival was inactive: 85%.
For `COc1ccc(CCNC(=O)CSc2nc(-c3ccc(F)cc3)cc(C(F)(F)F)n2)cc1OC`, the survival was inactive: 77%.
For `Cc1nn(-c2ccccc2)c2sc(C(=O)Nc3ccccc3Br)cc12`, the survival was active: 9%.
